# PubChem BioAssay AID686978 (National Center for Advancing Translational Sciences (NCATS), 2013)
# In all, about 420,000 compounds went through this assay and about 64,000 (15%) were called active. The inconclusive results got no clear call from the source; some entries with a clear call stand among them for comparison. Calls follow the shape of the dose curve; as a rule, active = well fitted inhibition curve with a large enough effect; inconclusive = small, poorly fitted or top-dose-only effect; inactive = flat fitted curve, though single readings scatter. Potencies of inconclusive entries are left out as doubtful fits.
# Experiment: qHTS for Inhibitors of human tyrosyl-DNA phosphodiesterase 1 (TDP1): qHTS in cells in absence of CPT; also: nearly all actives have a fitted effect of over 55% in size
# Settings: DT40 Tdp1-/- hTDP1 cells, no CPT, ATP luminescence, 48 h; activity change, negative = growth inhibition: at 46.2 µM (top of the series) unless noted
# Outline: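 Chicken DT40 Tdp1-/- cells complemented with human TDP1, screened without camptothecin (DMSO vehicle only), 400 cells/well. Compounds pin-transferred, cells incubated at 37 °C for at least 48 hr. Growth read as ATP-dependent luminescence (CellTiter-Glo, 30 min at RT).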
# % is scaled to controls: 0 for no effect and ±100 for the full control effect; potency is read from the fitted curve at half-maximal effect; tags tell the direction and shape of the fitted curve.
SMILES,Potency,"activity change, negative = growth inhibition"
CCC(c1nnnn1-c1c(C)cccc1C)N1CCN(C/C=C/c2ccccc2)CC1 (centres undefined),active: 7.31 µM,
COc1ccc(CN2C(=O)N(c3ccc(F)cc3)C(=O)C2CC(=O)Nc2ccccc2)cc1 (centres undefined),active: 13 µM,
CCOCCCNC(=O)c1c(NC(=O)c2cc(=O)c3cc(C)c(C)cc3o2)sc2c1CCC2,"inconclusive [inhibitor, single point]",
Cc1ccc(C)c(NC(=O)CSc2nncn3c2cc2sccc23)c1,"inconclusive [inhibitor, single point]",
CCCCC/C=C/C1=CC(=O)C[C@H](c2ccc3c(c2)OCO3)C1,,inactive: -21.9%
COc1ccc(C(=O)NCCc2c[nH]c3ccccc23)cc1,,inactive: -18.1%
COc1ccc(NC(=O)CN(C)C(=O)c2cc3c(s2)CCCCC3)cc1,,inconclusive: -30.5% [inhibitor]
O=C(c1cc2cc(Cl)ccc2[nH]1)N1CCCCC1,"inconclusive [inhibitor, single point]",
Cc1cc(=O)oc2cc(NC(=O)c3ccccc3Cl)ccc12,"inconclusive [inhibitor, partial curve, poor fit]",
COc1ccc(C(C)=O)cc1Cn1c(C)c(C(=O)NCc2ccc(C(C)C)cc2)sc1=O,"inconclusive [inhibitor, single point]",
CCOc1cc(NC(=O)c2ccccc2OC)c(OCC)cc1NC(=O)c1ccccc1,,inconclusive: -26.7% [inhibitor]
Cn1c(=O)c(-c2ccccc2)nc2cnc(N3CCNCC3)nc21,"inconclusive [inhibitor, single point]",
O=C(OCC(=O)N(CCc1ccccc1)Cc1ccccc1)c1cc(S(=O)(=O)N2CCOCC2)ccc1F,"inconclusive [inhibitor, partial curve, poor fit]",
Nc1ncnc2c1ncn2[C@@H]1O[C@H](CNC(=O)[C@@H]2CCCN2S(=O)(=O)c2ccc(F)cc2)[C@@H](O)[C@H]1O,,inactive: -5.13%
CCOc1cccc(OCCn2cnc3ccccc3c2=O)c1,,inactive: -1.23%
O=C(C1CCCO1)N1CCN(C(=S)Nc2ccc(Cl)cc2)CC1 (centres undefined),,inactive: -24.4%
COc1ccc(CCNC(=O)C(C)n2nc(C)n3c(cc4occc43)c2=O)cc1OC (centres undefined),,inactive: 16.7%
Cn1nc(CC(=O)Nc2cccc3ncccc23)c2ccccc2c1=O,active: 20.6 µM,
Cc1ccc(CCNc2nc3ccccc3c3nc(-c4ccccc4)nn23)cc1,"inconclusive [inhibitor, single point]",
Cc1nc2cc(Nc3ccncc3)ccc2s1,"inconclusive [inhibitor, partial curve]",
Cc1cc(C)n(-c2nc3c(c(=O)[nH]c(=O)n3C)n2CC(O)COc2ccccc2C)n1 (centres undefined),"inconclusive [inhibitor, single point]",
CCOc1ccc(C2c3[nH]c4ccccc4c3C[C@H]3C(=O)N(C4CCN(Cc5ccccc5)CC4)CC(=O)N23)cc1OC (some centres undefined),"inconclusive [inhibitor, single point]",
COc1ccc2[nH]c3c(c2c1)CCN1C(=O)C(CC(=O)NCCc2ccccn2)C[C@H](C(=O)N2CCOCC2)[C@@]31C (some centres undefined),,inactive: -1.15%

SMILES,Potency,"activity change, negative = growth inhibition"
CCCc1cc(=O)[nH]c(SCC(=O)N2CCN(S(=O)(=O)c3ccccc3)CC2)n1,"inconclusive [inhibitor, single point]",
COc1cccc(NC(=O)c2cnn(-c3ccccc3)c2C)c1,,inactive: -12.7%
O=C(N/N=C\c1ccccc1)c1cccc(C(=O)N/N=C\c2ccccc2)n1,"inconclusive [inhibitor, partial curve]",
Cc1ccc(NC(=O)Cn2cc(C(F)(F)F)cc(Cl)c2=O)cc1S(=O)(=O)N1CCCCC1,"inconclusive [inhibitor, single point]",
O=C(NCCc1c[nH]c2ccccc12)Nc1ccccc1C(F)(F)F,"inconclusive [inhibitor, single point]",
Cc1cccc(CS(=O)(=O)CC2Nc3ccc(C(=O)NCc4ccccc4Cl)cc3NC2=O)c1 (centres undefined),"inconclusive [inhibitor, partial curve]",
COc1ccc(-c2noc(-c3ccc(NC4CCCCC4)c([N+](=O)[O-])c3)n2)cc1OC,"inconclusive [inhibitor, single point]",
COc1cccc2sc(N(CCCN(C)C)C(=O)c3ccc(S(=O)(=O)N4CCCc5ccccc54)cc3)nc12,"inconclusive [inhibitor, single point]",
Cc1nn(Cc2ccccc2)c(C)c1NC(=O)c1cc(-c2ccc3c(c2)OCO3)on1,"inconclusive [inhibitor, partial curve]",
Cc1ccccc1/C=N/n1c(COc2ccccc2)n[nH]c1=S,"inconclusive [inhibitor, partial curve]",
CC(C)(C)S(=O)(=O)N1Cc2cc(CO)cc(CCO)c2[C@H]1CCO,,inactive: -7.27%
O=C(OCc1cn([C@H]2C[C@H](c3ccc(Cl)cc3)N(C(=O)C3CCCCC3)C[C@@H]2O)nn1)c1ccccc1,,inactive: 18.6%
NS(=O)(=O)c1ccc(CCNS(=O)(=O)c2ccc(Cl)s2)cc1,"inconclusive [inhibitor, single point]",
COc1cc(=O)n2c(c1C(=O)NC(C)c1ccco1)CCN(Cc1cc3ccccc3o1)CC2 (centres undefined),,inactive: -6.18%
COc1ccc(NS(=O)(=O)c2cccc(C(=O)N(C)Cc3ccc(SC)cc3)c2)cc1,"inconclusive [inhibitor, partial curve, poor fit]",
CC1(Cc2cc(Cl)ccc2C(F)(F)F)C(=O)Nc2c(Cl)cccc21 (centres undefined),active: 13 µM,
COc1cc(Nc2ncnc3onc(-c4ccc(Cl)cc4)c23)cc(OC)c1,active: 20.6 µM,
O=C(Nc1ccc(-c2nc3ncccc3o2)cc1)c1ccc([N+](=O)[O-])o1,active: 3.66 µM,
Cc1ccc(-n2c(=O)c3c(C)c(C)sc3n(CC(=O)c3ccc(Cl)cc3)c2=O)cc1C,,inactive: -5.16%
COc1ccc(/C=C/c2nccc3c2[nH]c2ccccc23)cc1,active: 11.2 µM,
O=C(Cc1ccc(Br)cc1)Nc1ccccc1Cl,,inactive: -0.452%
COCCNC(=O)C1(C)Cc2c(-c3cccc(NC(C)=O)c3)ccnc2O1 (centres undefined),"inconclusive [inhibitor, single point]",
Fc1c(F)c(F)c(SCn2cc(Br)cn2)c(F)c1F,"inconclusive [inhibitor, single point]",

SMILES,Potency,"activity change, negative = growth inhibition"
CCc1cccc(NC(=O)COC(=O)c2c(C)nn(-c3ccccc3)c2C)c1,"inconclusive [inhibitor, single point]",
O=C(Oc1ccc2ccccc2c1)c1ccccc1,,inactive: -25%
CCOC(=O)C1=C(Cc2ccc(Cl)cc2)C(=O)c2ccccc2C1=O,active: 4.61 µM,
O=C(COC(=O)c1ccccc1NCCO)Nc1cccc(S(=O)(=O)NC2=NCCCCC2)c1,,inactive: -20.3%
Cc1ccc(NS(=O)(=O)c2ccc(NC(=O)c3cccs3)cc2)c(C)c1,"inconclusive [inhibitor, single point]",
CCN(CC)CCN(Cc1cc2ccc(C)cc2[nH]c1=O)C(=S)Nc1ccccc1C(=O)OC,"inconclusive [inhibitor, single point]",
COc1ccc(CN2CCC(n3nccc3NC(=O)C3CCCC3)CC2)c(OC)c1,"inconclusive [inhibitor, single point]",
Brc1ccc2nc(-c3ccncc3)c(NC3CCCC3)n2c1,,inactive: -27.3%
CSc1n[nH]c2nc3c(c(=O)n12)C1(CCCC1)Cc1ccccc1-3,,inconclusive: -36.1% [inhibitor]
CC(C)CCNC(=O)C(c1ccncc1)N(C(=O)Cn1nnc(-c2ccc(F)cc2)n1)c1ccccc1F (centres undefined),"inconclusive [inhibitor, partial curve, poor fit]",
Oc1ccc(C[C@H]2CN([C@@H](Cc3ccccc3)CN3CCCC3CN3C(=S)NC[C@@H]3Cc3ccccc3)C(=S)N2CCc2ccccc2)cc1 (some centres undefined),active: 16.4 µM,
CC(C)(C)NC(=O)NC(=O)COC(=O)COc1ccc2c(c1)CCC2,,inactive: -11.3%
COc1cccc(C(=O)OCC(=O)NC(C)CCc2ccccc2)c1O (centres undefined),,inactive: -9.82%
COc1ccc(-c2cnnc(N/N=C/c3c(C)nn(-c4ccccc4)c3Cl)n2)cc1,active: 5.17 µM,
Cc1cc(NC(=O)CCC(=O)N(Cc2ccccc2)C2(C(=O)NC3CCCCC3)CCCC2)no1,"inconclusive [inhibitor, single point]",
CCCCc1c(C)nn(-c2nnc3c4ccccc4n(C)c3n2)c1C,active: 23.1 µM,
CCCCn1c(N)c(N(CCC(C)C)C(=O)C2=NN(c3ccccc3)C(=O)CC2)c(=O)[nH]c1=O,,inactive: 13.6%
CCOC(=O)N1CCN(C(=O)CN(c2cc(Cl)ccc2OC)S(=O)(=O)c2ccccc2)CC1,,inconclusive: -30.8% [inhibitor]
CCCOc1ccc(/C=C/C(=O)Nc2ccc([N+](=O)[O-])cc2)cc1,active: 20.6 µM,
COc1ccc(N2CCN(C(CNS(=O)(=O)c3c(C)cc(C)cc3C)c3ccco3)CC2)cc1 (centres undefined),active: 25.9 µM,
O=C(Cn1c(=O)n(Cc2ccc(F)cc2)c(=O)c2sc3ccccc3c21)NCc1ccccc1Cl,"inconclusive [inhibitor, full curve, poor fit]",
O=C(N/C=N/O)C(c1ccccc1)c1ncc(C(F)(F)F)cc1Cl (centres undefined),,inactive: -1.16%
N#Cc1c(C(F)(F)F)cc(-c2cccs2)nc1SCC(=O)Nc1ccc(Cl)cc1,"inconclusive [inhibitor, single point]",
